For the assay, the system named is BCG (Bacille de Calmette et Guerin). As to conditions: 4 mg/mouse per day in 0.2 ml of sunflower oil.

As to `CC(=O)Oc1ccccc1C(=O)Nc1ncc([N+](=O)[O-])s1` [Nitazoxanide, 2-(acetolyloxy)-N-(5-nitro 2-thiazoly) benzamide], the “results in treated mice versus izoniazide group” value was “comparable to the group receiving izoniazide”.
